# From the supplement of paper PMC8728848
# The other results are listed elsewhere or left out.
# Assays:
# Experiment in all cases: glycan array binding signal (z-score within array); higher = stronger binding
# Conditions in all cases: glycan notation: IUPAC condensed, linker removed
# [1] = molecular target: Gal(b1-4)GlcNAc(b1-6)[Gal(b1-3)]GalNAc
# In short: (§1)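 Glycan array data were curated from 3228 arrays in the Consortium for Functional Glycomics database and kept only where the protein sequence was available. Glycan names were converted to IUPAC-condensed notation, and columns mapping to the same glycan were averaged. The binding signal is a within-array Z-score, averaged across arrays of the same protein sequence at different concentrations or buffers and across linkers. Negative Z-scores can be read as non-binding.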
# [2] = molecular target: Gal3S(b1-3)GalNAc
# In short: as §1
# [3] = molecular target: Gal3S(b1-3)GlcNAc
# In short: as §1
# [4] = molecular target: Gal3S(b1-3)[Fuc(a1-4)]GlcNAc
# In short: as §1
# [5] = molecular target: Gal3S(b1-4)Glc
# In short: as §1
# [6] = molecular target: Gal3S(b1-4)Glc6S
# In short: as §1
# [7] = molecular target: Gal3S(b1-4)GlcNAc
# In short: as §1
# [8] = molecular target: Gal4S(b1-4)GlcNAc
# In short: as §1
# [9] = molecular target: Gal6S(b1-4)Glc
# In short: as §1
# [10] = molecular target: Gal6S(b1-4)Glc6S
# In short: as §1
# [11] = molecular target: GalNAc(a1-3)Gal
# In short: as §1
# [12] = molecular target: GalNAc(a1-3)GalNAc
# In short: as §1
# [13] = molecular target: GalNAc(b1-3)GalNAc
# In short: as §1
# [14] = molecular target: GalNAc(b1-4)GlcNAc
# In short: as §1
# [15] = molecular target: Glc(a1-4)Glc
# In short: as §1
# [16] = molecular target: Glc(b1-4)Glc
# In short: as §1
# [17] = molecular target: Glc(b1-6)Glc
# In short: as §1
# [18] = molecular target: GlcNAc(b1-2)Gal(b1-3)GalNAc
# In short: as §1
# [19] = molecular target: GlcNAc(b1-3)Gal
# In short: as §1
# [20] = molecular target: GlcNAc(b1-3)Gal(b1-3)GalNAc
# In short: as §1
# [21] = molecular target: GlcNAc(b1-3)Gal(b1-4)Glc
# In short: as §1
# [22] = molecular target: GlcNAc(b1-3)Gal(b1-4)GlcNAc
# In short: as §1
# [23] = molecular target: GlcNAc(b1-3)[GlcNAc(b1-6)]GalNAc
# In short: as §1
# [24] = molecular target: GlcNAc(b1-3)[GlcNAc(b1-6)]GlcNAc(b1-4)GlcNAc
# In short: as §1
# [25] = molecular target: GlcNAc(b1-4)GlcNAc(b1-4)GlcNAc
# In short: as §1
# [26] = molecular target: GlcNAc(b1-4)[GlcNAc(b1-6)]GalNAc
# In short: as §1
# [27] = molecular target: GlcNAc(b1-6)GalNAc
# In short: as §1
# [28] = molecular target: Kdn(a2-3)Gal(b1-3)GlcNAc
# In short: as §1
# [29] = molecular target: Kdn(a2-3)Gal(b1-4)GlcNAc
# In short: as §1
# [30] = molecular target: Man(a1-2)Man(a1-2)Man(a1-3)Man
# In short: as §1
# [31] = molecular target: Man(a1-2)Man(a1-2)Man(a1-6)[Man(a1-3)]Man
# In short: as §1
# [32] = molecular target: Man(a1-2)Man(a1-3)Man
# In short: as §1
# [33] = molecular target: Man(a1-2)Man(a1-3)[Man(a1-2)Man(a1-6)]Man
# In short: as §1
# [34] = molecular target: Man(a1-2)Man(a1-3)[Man(a1-2)Man(a1-6)]Man(a1-6)[Man(a1-2)Man(a1-2)Man(a1-3)]Man(b1-4)GlcNAc(b1-4)GlcNAc
# In short: as §1
# [35] = molecular target: Man(a1-2)Man(a1-3)[Man(a1-2)Man(a1-6)]Man(a1-6)[Man(a1-3)[Man(a1-6)]Man(a1-6)]Man(b1-4)GlcNAc(b1-4)GlcNAc
# In short: as §1
# [36] = molecular target: Man(a1-2)Man(a1-3)[Man(a1-6)]Man(a1-6)[Man(a1-2)Man(a1-3)]Man(b1-4)GlcNAc(b1-4)GlcNAc
# In short: as §1
# [37] = molecular target: Man(a1-2)Man(a1-6)[Man(a1-3)]Man(a1-6)[Man(a1-2)Man(a1-2)Man(a1-3)]Man(b1-4)GlcNAc(b1-4)GlcNAc
# In short: as §1
# [38] = molecular target: Man(a1-3)[Man(a1-6)]Man
# In short: as §1
# [39] = molecular target: Man(a1-3)[Man(a1-6)]Man(a1-6)[Man(a1-3)]Man(b1-4)GlcNAc(b1-4)GlcNAc
# In short: as §1
# [40] = molecular target: Neu5Ac(a2-3)Gal
# In short: as §1
# [41] = molecular target: Neu5Ac(a2-3)Gal(b1-3)GalNAc
# In short: as §1
# [42] = molecular target: Neu5Ac(a2-3)Gal(b1-3)GalNAc6S
# In short: as §1
binder,measurement,setting,value
"RegIIIgamma (Mus musculus), O09049 (protein) MLPRITITIMSWMLLSCLMLLSQVQGEVAKKDAPSSRSSCPKGSRAYGSYCYALFSVSKNWYDADMACQKRPSGHLVSVLSGAEASFLSSMIKSSGNSGQYVWIGLHDPTLGYEPNRGGWEWSNADVMNYINWETNPSSSSGNHCGTLSRASGFLKWRENYCNLELPYVCKFKA",glycan array binding signal (z-score),[1],-0.279
same,glycan array binding signal (z-score),[2],-0.134
same,glycan array binding signal (z-score),[3],-0.183
same,glycan array binding signal (z-score),[4],-0.14
same,glycan array binding signal (z-score),[5],-0.106
same,glycan array binding signal (z-score),[6],0.136
same,glycan array binding signal (z-score),[7],-0.128
same,glycan array binding signal (z-score),[8],1.17
same,glycan array binding signal (z-score),[9],-0.12
same,glycan array binding signal (z-score),[10],0.13
same,glycan array binding signal (z-score),[11],-0.276
same,glycan array binding signal (z-score),[12],-0.261
same,glycan array binding signal (z-score),[13],-0.279
same,glycan array binding signal (z-score),[14],-0.248
same,glycan array binding signal (z-score),[15],-0.187
same,glycan array binding signal (z-score),[16],-0.236
same,glycan array binding signal (z-score),[17],-0.213
same,glycan array binding signal (z-score),[18],-0.266
same,glycan array binding signal (z-score),[19],-0.266
same,glycan array binding signal (z-score),[20],-0.218
same,glycan array binding signal (z-score),[21],-0.258
same,glycan array binding signal (z-score),[22],-0.278
same,glycan array binding signal (z-score),[23],-0.28
same,glycan array binding signal (z-score),[24],-0.25
same,glycan array binding signal (z-score),[25],-0.185
same,glycan array binding signal (z-score),[26],-0.271
same,glycan array binding signal (z-score),[27],-0.303
same,glycan array binding signal (z-score),[28],-0.064
same,glycan array binding signal (z-score),[29],0.423
same,glycan array binding signal (z-score),[30],0.028
same,glycan array binding signal (z-score),[31],-0.256
same,glycan array binding signal (z-score),[32],-0.224
same,glycan array binding signal (z-score),[33],-0.205
same,glycan array binding signal (z-score),[34],-0.15
same,glycan array binding signal (z-score),[35],-0.191
same,glycan array binding signal (z-score),[36],-0.134
same,glycan array binding signal (z-score),[37],-0.06
same,glycan array binding signal (z-score),[38],-0.224
same,glycan array binding signal (z-score),[39],-0.192
same,glycan array binding signal (z-score),[40],-0.165
same,glycan array binding signal (z-score),[41],-0.16
same,glycan array binding signal (z-score),[42],-0.033
